Results on 167 variants are retold here after the RNAGym collection of RNA variant scans (doi:10.1093/nar/gkz1192).

Read counts are not given, so values of variants with three or more changes are uncertain.

The chains are these.
B1: CPEB3 Ribozyme (parent)
chain: UAACAGGGGGCCACAGCAGAAGCGUUCACGUCGCAGCCCCUGUCAGAUUCUGGUGAAUCUGCGAAUUCUGCUGUAUAUCUC

The variants in the data set derive from B1. Briefly: self-cleavage, relative activity (ratio to wild type); higher = more cleavage; in vitro, sequencing. In short, it runs like this: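 After error-prone PCR and barcoding, CPEB3 ribozyme mutant libraries were transcribed with T7 RNA polymerase at 37°C for 5 hours, then given 15 min with DNase I before an EDTA stop, and they cleaved during both steps. Reverse transcription with template switching preceded Illumina sequencing. Relative activity divides a variant's cleaved/total read fraction by the unmutated ribozyme's. At least 5 reads were required per variant, and three batches were averaged.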
For A3G A5G A21U A45U, the self-cleavage was found to be 0.48.
A2U U25C U31A U72C: the self-cleavage was determined as 0.07.
Regarding A3C G16U C39G U49C A64G, the self-cleavage was determined as 0.08.
Regarding A3G A5G A15U C50U A77G, the self-cleavage amounted to 0.57.
Consider A2U A18U C32U A75G, for which the self-cleavage turned out to be 0.22.
A2U G8C A65G U67C U74C A75U: the self-cleavage came out at 0.
For the variant A2U U25C U26C U43A U54C U78C, the self-cleavage was found to be 0.19.
On to A2U U58C U78A, for which the self-cleavage is 0.53.
On to A2U U25A U69C, for which the self-cleavage amounted to 0.19.
To A2U A45U U54C U69C U78C U80C belongs 0.16.
With A3C A18G G24C U41C U67C U80A, the self-cleavage worked out at 0.12.
Take A2U G33C A56U A57G U78C: the self-cleavage was 0.12.
Regarding A2U A45U U48C A64G, the self-cleavage amounted to 0.23.
Then A2U U25C U31C U51A U78A, with 0.2.
For the variant A2U U25C U31C U51A U78C, the self-cleavage was determined as 0.08.
Turning to A2U A20G U43A, the self-cleavage was determined as 0.97.
Take A2U A20C A64G: the self-cleavage is 0.38.
Regarding A3G A5G A15U G42U U48C, the self-cleavage is 0.38.
On to A2U U25A U31C U43A U60A U69C, for which the self-cleavage came to 0.16.
To A3C U43C A47G A75G belongs 0.32.
In the case of A3C A13U C14A C17A C40U U78C, the self-cleavage is 0.49.
Consider A2U A57G U78C, for which the self-cleavage is 0.79.
On to A2U U43C U60A, for which the self-cleavage was determined as 0.15.
Consider A2U A35U U41C U49G U67C, for which the self-cleavage came to 0.03.
With A2U C29U A56G, the self-cleavage turned out to be 0.19.
For A2U G8A U43A U48C U72A, the self-cleavage was found to be 0.04.
To A3C A21G C23U A47G C59A U72C belongs 0.11; to A3G A5C A15G G46A A47G A56G U78C, 0.55.
In the case of A3C A13C G53C, the self-cleavage was 1.09.
Take A3G A5G A18G C71U U80C: the self-cleavage was 0.56.
As for A3C A15G U25C U49C, the self-cleavage turned out to be 0.4.
Consider A2U G24U A56G U78C U80A, for which the self-cleavage turned out to be 0.07.
As for A3C U31A G52A A56G U60A A65U, the self-cleavage came to 0.15.
Regarding A3C G9U A35C, the self-cleavage worked out at 0.09.
As for A3C C14G A18U A56G U60A U66C, the self-cleavage was found to be 0.09.
A2U U26A U67A U78C: the self-cleavage came out at 0.32.
Turning to A2U A21G U25C U54C A56G U72C A77G, the self-cleavage is 0.06.
For the variant A3C C71U U76A, the self-cleavage was 0.91.
For the variant A3C A20U C23U G33A U72A A77G, the self-cleavage is 0.28.
For A2U C29U G30A U49C U67A, the self-cleavage amounted to 0.17.
Turning to A3C U25A C59A A64G U80C, the self-cleavage came out at 0.21.
Take A3C G6C G70C U74C: the self-cleavage was 0.35.
As for A2U A20G U26A U49C U74A C79G, the self-cleavage is 0.29.
To A2U U41A U54G belongs 0.31.
With A3C A20U C38A U51G G63U, the self-cleavage came to 0.1.
A3C A5U A21G U51G U60C G63U: the self-cleavage turned out to be 0.06.
For the variant A2U C27G A28G C34G U43C A64G A75G, the self-cleavage worked out at 0.16.
Consider A2U A56G U78C, for which the self-cleavage is 0.53.
Regarding A3C A20U U31A A35G U69A A77G, the self-cleavage was 0.37.
Take A3C C23A U72C: the self-cleavage worked out at 0.15.
As to A2U U25C A56G U78C, the self-cleavage came to 0.25.
In the case of A3C G19U U54C U69A, the self-cleavage was found to be 0.32.
To A3C C40A U41A A47U C68A U74C U78A belongs 0.17.
With A3C A21C U72C U78C, the self-cleavage amounted to 0.38.
In the case of A3C U41C U43C G55A, the self-cleavage is 0.22.
Consider A3C C17A A21G U41A U60C, for which the self-cleavage turned out to be 0.25.
As to A3C G10C A21G U26C U78A, the self-cleavage was 0.34.
Turning to A2U G16A A56U U60C A64G, the self-cleavage was found to be 0.16.
To A2U U25C A47U U51G U58C A75G belongs 0.08.
For A3C A28G U31C U41C, the self-cleavage came out at 0.52.
To A3G A5G A15U A18U A57G belongs 0.19; to A3C A28G U41A, 0.19.
Regarding A2U A45G C62A U72A, the self-cleavage is 0.35.
Turning to A3C A21U C29G, the self-cleavage was determined as 0.43.
To A3C A15G U60A belongs 0.56; to A3C A15U A35G U41C U43C, 1.12; to A2U A35G A64G, 1.25.
Take A3C G73A U80A: the self-cleavage was found to be 1.22.
With A3C A57C U60A C62U, the self-cleavage was 0.13.
Regarding A2U C23U U72A, the self-cleavage was determined as 0.1.
In the case of A3C A35G U60C A64G, the self-cleavage was 1.2.
A2U U26A U43A C44U U74C: the self-cleavage turned out to be 0.59.
A2U A35G U43C A47G: the self-cleavage worked out at 1.04.
In the case of A3C A13U A64G U66C, the self-cleavage stood at 0.69.
Regarding A3C U25C U31G U51A U72C, the self-cleavage amounted to 0.08.
As for A3C C23G C50U U60A U78C, the self-cleavage was 0.04.
To A3G A5G A13G G19A A28G U80C belongs 0.14; to A2U A18U G53A U60A, 0.36; to A2U C11G A28U U51A A64G A77G, 0.07.
Consider A3C U31C G55U, for which the self-cleavage was determined as 1.16.
To A3C A28G A47G U51C U60A G73C U74A belongs 0.14.
On to A3C G16C U48G C59A U78A, for which the self-cleavage was found to be 0.27.
On to A3C G9C A28G A56G U74C, for which the self-cleavage stood at 0.09.
For A3G A5G A15U U41A U72C, the self-cleavage turned out to be 0.37.
Turning to A3C A56G A64U, the self-cleavage was found to be 0.42.
A2U C37A U72A: the self-cleavage worked out at 0.38.
In the case of A3G A5C A28G C38U, the self-cleavage amounted to 0.53.
As for A3G A5C U54C A77U, the self-cleavage was 1.09.
Regarding A3C A18G U25C C29U G52U U60A A65G, the self-cleavage was 0.14.
Consider A2U A47G U67C, for which the self-cleavage is 0.24.
Take A2U A45G A65C U67C: the self-cleavage stood at 0.12.
Then A3C A21G U80C, with 0.86; and A3C U48A U51A U80C, with 0.41; and A3C C23G C29U, with 0.14.
A2U A28U U58A: the self-cleavage amounted to 0.5.
As to A2U G7A A57G, the self-cleavage was 0.35.
On to A3C A18G U51A U72C U76C A77G, for which the self-cleavage was found to be 0.49.
To A3C G36U U41A A64G belongs 0.16; to A3G A5G A21G U26C U31C C37U A45U, 0.07.
Regarding A3C A13U C32U U49C A64U U78C, the self-cleavage turned out to be 0.06.
Take A2U A20U A47G A64G: the self-cleavage was found to be 0.11.
For A2U U26A U54G, the self-cleavage stood at 0.59.
In the case of A3C G7U A28U U58C, the self-cleavage amounted to 0.06.
As for A2U A21G U31C U41G U54C, the self-cleavage was 0.14.
In the case of A2U A21C A45G U72A, the self-cleavage came out at 0.11.
As for A3C A15G A45G, the self-cleavage is 0.49.
As to A2U G6A U31C A35U U72C, the self-cleavage is 0.19.
For the variant A3C A18G U43A U58A U60A A64G U69A, the self-cleavage was 0.22.
Then A3C A35U A47U U60A, with 0.09.
To A2U G22C A45G U60C belongs 0.1.
On to A3C A5U A18G A20U U25A G33U U80A, for which the self-cleavage came to 0.14.
For the variant A3C G7U A15U A45G U60C, the self-cleavage turned out to be 0.33.
For the variant A2U C17U G33C, the self-cleavage amounted to 0.22.
A3C U26A U31C: the self-cleavage was found to be 1.19.
For the variant A2U A28G U48C U69A, the self-cleavage is 0.12.
Then A2U A18U U67C, with 0.12; and A2U U54C A64U, with 0.39; and A2U A45U U51C A64G U67A, with 0.13.
As to A2U G10A A13G C37G U48C, the self-cleavage stood at 0.08.
Regarding A2U C11U A56U A65U U67A U78C, the self-cleavage is 0.04.
On to A2U A47U A57G, for which the self-cleavage turned out to be 0.06.
A2U G16C U51C A64G A65G: the self-cleavage turned out to be 0.2.
Regarding A2U U25C A65G, the self-cleavage was determined as 0.25.
Turning to A3C G16U A18U G46U, the self-cleavage was 0.09.
In the case of A2U G10C U31A U54C U58A, the self-cleavage is 0.22.
For the variant A3G A5C U26C U49C U58C, the self-cleavage was 0.33.
With A2U A18U U80A, the self-cleavage amounted to 0.29.
Then A3C U25C C39U U41A A45U, with 0.36.
In the case of A2U A57G U74C, the self-cleavage came out at 1.14.
A2U G7U A45G G61U: the self-cleavage came out at 0.32.
As for A2U G7U A13U A28U U41C U51A A57G, the self-cleavage worked out at 0.18.
A2U U58C A65U: the self-cleavage turned out to be 0.25.
Then A2U A35U U41C A45U U80A, with 0.2; and A3C A15G U25C U26C, with 0.7.
For A3C A21G A64G, the self-cleavage amounted to 0.71.
As for A3C C29A U60C, the self-cleavage was 0.47.
To A2U U31C A35U A65U belongs 0.17; to A3C C12A C38U C40A A57C U67A, 0.08; to A2U G9U U78C, 0.33.
In the case of A3C A56G U78C U80C, the self-cleavage came out at 0.6.
Turning to A2U U26A A56G, the self-cleavage was 0.46.
Turning to A2U A45G U49C U51G U60A C81G, the self-cleavage was 0.17.
On to A3C U43G G53A U69A, for which the self-cleavage is 0.32.
A2U A64G U66A: the self-cleavage worked out at 0.28.
Then A2U U25C A28G C38A A56G U69C, with 0.06.
Consider A3C G9A U31C, for which the self-cleavage came to 0.46.
Consider A3C U26C A35G U41C U49A U51A A75U, for which the self-cleavage came out at 1.15.
For A3C A35G U43C, the self-cleavage worked out at 1.3.
For the variant A2U A45U U60C, the self-cleavage is 0.23.
As for A2U A45U G63A U72A U80C, the self-cleavage stood at 0.47.
To A2U U31A U67A G70A belongs 0.19.
With A3C U31A U67A, the self-cleavage turned out to be 0.21.
Then A2U A18U U31A G42A A45U U69A, with 0.08; and A2U U51C U58C U60C U72C U78C, with 0.21.
With A2U C12U U41C U66C, the self-cleavage worked out at 0.83.
In the case of A2U G8U A28C A65G, the self-cleavage came to 0.16.
Regarding A3C C40U U67C, the self-cleavage was 0.15.
Take A3C A13U A28C: the self-cleavage amounted to 0.87.
With A2U U31G U51C, the self-cleavage is 0.41.
Consider A2U U49C G70A, for which the self-cleavage amounted to 0.36.
Take A2U C17U G33C U72C: the self-cleavage was 0.19.
To A3C A64U U78G belongs 0.54; to A2U U26C A77U, 0.65; to A3C A15U U25C U26C A65U U80C, 0.35.
Take A2U U41G A47G G70A: the self-cleavage is 0.06.
Then A2U G16U A28G U72G A77G, with 0.18; and A3C A20U U76C U78C, with 0.27.
